Source: PubChem BioAssay AID686979 (National Center for Advancing Translational Sciences (NCATS), 2013)
Screen size: about 420,000 compounds; about 50,000 (12%) were called active. Inconclusive means that the source gave no clear call. Such entries were picked first, then a sample of the others. Calls follow the shape of the dose curve; as a rule, active = well fitted inhibition curve with a large enough effect; inconclusive = small, poorly fitted or top-dose-only effect; inactive = flat fitted curve, though single readings scatter. No potency is given beside an inconclusive call; the fits are too rough.

test: qHTS for Inhibitors of human tyrosyl-DNA phosphodiesterase 1 (TDP1): qHTS in cells in presence of CPT; details: chicken DT40 Tdp1-/-;hTDP1 cells + 20 nM CPT, ATP luminescence, 48 h; series mostly up to 46.2 µM; also: nearly all actives have a fitted effect of over 55% in size
Procedure, shortened: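 Chicken DT40 Tdp1-/- cells stably complemented with human TDP1 were seeded at 400 cells/well in medium containing 20 nM camptothecin, exposed to pin-transferred compounds, and grown at 37 °C for at least 48 hr. Viability was read as ATP luminescence.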
Potency is read from the fitted curve at half-maximal effect; tags tell the direction and shape of the fitted curve.

Structure (SMILES)	Potency
COc1ccccc1NC(=O)c1cc(S(=O)(=O)NCCc2ccccc2)ccc1F	inconclusive [inhibitor, single point]
COc1ccc(C2Nc3ccccc3C(=O)N2c2ccccc2)cc1CSc1ccccn1 (stereo unspecified)	inconclusive [inhibitor, partial curve]
COc1ccc(-n2c(=O)cc(N3CCN(c4ccccc4OC)CC3)[nH]c2=O)cc1	inconclusive [inhibitor, single point]
COc1cccc(CNC(=O)c2ccc3nc(N4CCCCC4)sc3c2)c1OC	inconclusive [inhibitor, single point]
CCNCc1cc(Cl)c(OCc2ccccc2)c(OCC)c1	inconclusive [inhibitor, single point]
COc1cccc(CNC(=O)C(NS(=O)(=O)c2cccs2)C(C)C)c1 (stereo unspecified)	inactive
COc1cc(C2Sc3ccccc3NC3=C2C(=O)OC3)cc(OC)c1OC (stereo unspecified)	active: 16.4 µM
O=C(Nc1ncccc1O)c1ccc2c(c1)OCO2	inconclusive [inhibitor, single point]
C/C(=N\NC(=O)c1ccccc1)c1c(C)[nH]n(-c2ccccc2)c1=O	active: 0.146 µM
O=C1NC[C@@H](CCCCN2CCN(CC3CCCCC3)C(=O)C2=O)N(CCC2CCCCC2)C1=O	inactive
COc1ccc(C(=O)Nc2ccccc2N2CCN(C(=O)C(C)C)CC2)cc1Cl	inconclusive [inhibitor, single point]
CCOc1ccc(-n2c(SC(C)C)nc3c(c2=O)SCC3)cc1	inconclusive [inhibitor, single point]
COc1ccc2nc(SCC(=O)Nc3ccc(S(=O)(=O)Nc4nccc(C)n4)cc3)[nH]c2c1	inconclusive [inhibitor, single point]
COc1cc(C(=O)NC(=S)Nc2ccc(N3CCCC3)cc2)cc(OC)c1OC	inactive
CCOC(=O)[C@H]1[C@H]2COc3ccc(OC)cc3[C@@H]2N2C(=O)CN(Cc3ccc(OC)cc3)C(=O)[C@@]12C	inconclusive [inhibitor, single point]
Cc1ccc(C(=O)NCCc2cccc(Cl)c2)cc1[N+](=O)[O-]	active: 20.6 µM
Cc1nn(Cc2ccc(C(=O)NC(C)(C)C)o2)c(C)c1Br	active: 23.1 µM
CN1CCN(C(=O)CCN2C(=O)S/C(=C/c3ccc(Cl)cc3)C2=O)CC1	active: 13 µM
COc1ccccc1NC(=O)COC(=O)/C=C/c1cccs1	inconclusive [inhibitor, single point]
C[C@]12CCC(=O)C=C1CC[C@@H]1[C@@H]2[C@@H](O)C[C@@]2(C)[C@H]1CC[C@]2(O)C(=O)CO	inactive
O=C(Nc1cccc(NC(=O)c2cccs2)c1)c1ccc(Br)cc1	inconclusive [inhibitor, single point]
CCC(=O)OC1C2CC3=C4CC(=O)OC(c5ccoc5)[C@]4(C)CCC3[C@@](C)(C2=O)C(CC(=O)OC)C1(C)C (stereo partly specified)	inactive
CC(C)(C)c1ccc(S(=O)(=O)Nc2cccnc2)cc1	inconclusive [inhibitor, single point]

Structure (SMILES)	Potency
Cc1ccc(S(=O)(=O)NCC(=O)N/N=C/c2ccccc2O)cc1	active: 5.17 µM
CCCCN1C(=O)c2[nH]nc(-c3ccccc3O)c2C1c1cc(Br)c(O)c(OC)c1 (stereo unspecified)	inconclusive [inhibitor, single point]
CCOc1ccc(S(=O)(=O)Nc2cccc(-c3ccc(N4CCCCCC4)nn3)c2)cc1	inconclusive [inhibitor, single point]
CC(C(=O)Nc1nc(-c2ccc(F)cc2)cs1)N1C(=O)C2CC=CCC2C1=O (stereo unspecified)	inconclusive [inhibitor, single point]
Cc1ccc(C(=O)N[C@H](C(=O)N2CCN(c3ncccn3)CC2)C(C)C)cc1	inconclusive [inhibitor, single point]
Cc1ccc(OCc2ccc(C(=O)NCC3CCCO3)cc2)cc1 (stereo unspecified)	inconclusive [inhibitor, single point]
Cc1ccc(-n2c(C)cc(/C=C3\SC(=O)NC3=O)c2C)cc1	inactive
CCn1nc(C)c(NC(=O)CC23CC4CC(CC(C4)C2)C3)c1C	inconclusive [inhibitor, single point]
Cc1ccc(S(=O)(=O)N(C)CC(=O)N/N=C/c2ccc(C)o2)cc1	inconclusive [inhibitor, single point]
CCn1ccc(C(=O)Nc2ncc(C)s2)n1	inactive
COc1ccc(C)cc1NC(=O)Nc1ccc2c(c1)CCC2	inconclusive [inhibitor, single point]
CN(/N=C/c1cccnc1)c1cnn(-c2ccc(F)c(Cl)c2)c(=O)c1Cl	inactive
COc1ccc(-n2cccc2/C=C2/NC(=O)N(c3cccc(Cl)c3)C2=O)cc1	inactive
Oc1ccc(/C=C/c2ccc3cccc(O)c3n2)cc1Br	inconclusive [inhibitor, single point]
CCCc1nc2ccc([N+](=O)[O-])cc2[nH]1	inactive
COc1ccc2oc(C(=O)OC/C(O)=C(\C#N)c3nc4ccccc4[nH]3)c(C)c2c1	inactive
O=C(Nc1nc(-c2ccc(Cl)s2)cs1)c1ccccc1	inconclusive [inhibitor, single point]
CCNC(=S)NNc1nnc(-c2ccccc2)c(-c2ccccc2)n1	inactive
CCSc1nc2ccccc2c(=O)n1-c1c(C)n(C)n(-c2ccccc2)c1=O	inactive
CN1CCc2c(sc3c2c(=O)n(-c2ccccc2)c2nnc(SCc4ccc(Cl)cc4)n32)C1	active: 13 µM
O=S(=O)(Nc1ccc2nc(-c3ccc(F)cc3)oc2c1)c1ccccc1	inconclusive [inhibitor, single point]
O=C(CCn1c(=O)[nH]c2ccsc2c1=O)N1CCN(c2cccc(Cl)c2)CC1	inactive
Cc1ccc2[nH]c(=O)c3cc(C(=O)N(C)c4ccc(Br)cc4)sc3c2c1	active: 3.66 µM
